{"sequences": {"note": "Protein sequences, listed by entry. Tags and fused reporters are not part of them. Lines headed by an entry give the natural chain unless they say otherwise; changes in a name come on top.", "UniProt Q7Z434": "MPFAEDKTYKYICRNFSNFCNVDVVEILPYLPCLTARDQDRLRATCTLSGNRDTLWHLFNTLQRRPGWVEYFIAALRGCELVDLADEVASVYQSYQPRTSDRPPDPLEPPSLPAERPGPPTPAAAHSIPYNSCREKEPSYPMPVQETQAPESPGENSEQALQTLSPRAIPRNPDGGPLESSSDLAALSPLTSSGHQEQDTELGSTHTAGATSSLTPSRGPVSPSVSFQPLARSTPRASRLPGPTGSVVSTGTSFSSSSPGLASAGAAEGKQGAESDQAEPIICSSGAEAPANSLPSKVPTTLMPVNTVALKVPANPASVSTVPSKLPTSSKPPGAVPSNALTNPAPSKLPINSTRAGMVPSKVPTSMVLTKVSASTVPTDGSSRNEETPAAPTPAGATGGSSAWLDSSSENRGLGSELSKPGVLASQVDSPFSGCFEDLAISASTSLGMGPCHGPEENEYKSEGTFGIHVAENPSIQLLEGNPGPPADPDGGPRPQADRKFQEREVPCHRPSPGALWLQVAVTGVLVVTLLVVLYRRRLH"}, "source": "paper PMC6642205", "key": {"[1]": {"molecular_target": "T1, NLK (Nemo-like kinase), transfected, tag not stated (UniProt Q9UBE8)", "T1 sequence": "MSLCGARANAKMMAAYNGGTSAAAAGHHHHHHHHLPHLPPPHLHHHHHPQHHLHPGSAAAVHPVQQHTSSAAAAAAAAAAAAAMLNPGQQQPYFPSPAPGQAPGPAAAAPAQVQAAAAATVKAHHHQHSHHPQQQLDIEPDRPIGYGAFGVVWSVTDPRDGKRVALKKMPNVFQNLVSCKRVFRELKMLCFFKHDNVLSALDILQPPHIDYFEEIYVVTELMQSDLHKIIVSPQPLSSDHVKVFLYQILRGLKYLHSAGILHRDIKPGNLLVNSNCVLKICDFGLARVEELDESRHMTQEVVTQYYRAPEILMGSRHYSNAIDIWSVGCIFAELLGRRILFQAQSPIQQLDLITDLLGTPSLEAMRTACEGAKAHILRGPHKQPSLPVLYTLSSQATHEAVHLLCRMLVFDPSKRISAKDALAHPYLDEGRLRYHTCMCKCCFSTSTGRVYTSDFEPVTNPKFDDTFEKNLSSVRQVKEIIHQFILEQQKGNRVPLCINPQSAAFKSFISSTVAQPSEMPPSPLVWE", "assay": "co-IP; competition: 20 µg/ml NAMDAP peptide added to HEK293T cells transfected with NLK and MAVS (MG132, SeV, 8 h) before immunoprecipitation; only the binder purified"}, "[2]": {"molecular_target": "HA-MAVS (mitochondrial antiviral-signaling protein) (UniProt Q7Z434)", "assay": "co-IP"}, "TBK1": {"molecular_target": "T2, TBK1 (UniProt Q9UHD2)", "T2 sequence": "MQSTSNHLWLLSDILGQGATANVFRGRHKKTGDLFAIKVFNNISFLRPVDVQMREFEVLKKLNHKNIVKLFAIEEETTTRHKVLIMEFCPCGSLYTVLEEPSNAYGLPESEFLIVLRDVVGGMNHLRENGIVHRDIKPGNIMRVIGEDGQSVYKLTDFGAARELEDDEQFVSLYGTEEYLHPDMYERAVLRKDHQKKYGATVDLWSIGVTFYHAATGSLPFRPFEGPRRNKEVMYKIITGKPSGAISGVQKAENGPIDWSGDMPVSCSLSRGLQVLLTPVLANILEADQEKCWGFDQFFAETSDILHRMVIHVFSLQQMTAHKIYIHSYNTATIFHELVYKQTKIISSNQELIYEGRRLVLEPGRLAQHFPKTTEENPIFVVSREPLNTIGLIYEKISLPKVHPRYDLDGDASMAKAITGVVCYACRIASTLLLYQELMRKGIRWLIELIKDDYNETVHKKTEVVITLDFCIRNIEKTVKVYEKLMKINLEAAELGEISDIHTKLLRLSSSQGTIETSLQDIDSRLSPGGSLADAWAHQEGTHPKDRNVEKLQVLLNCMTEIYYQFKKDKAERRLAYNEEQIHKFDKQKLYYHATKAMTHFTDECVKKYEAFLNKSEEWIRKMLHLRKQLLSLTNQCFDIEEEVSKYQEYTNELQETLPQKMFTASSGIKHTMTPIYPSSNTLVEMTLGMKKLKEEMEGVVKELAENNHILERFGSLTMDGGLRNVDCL", "assay": "co-IP; […] antibody and Protein G beads, 4 °C, 5 h; immunoblot"}, "[3]": {"molecular_target": "T3, endogenous IRF3 of mouse BMDMs (mouse (endogenous in BMDMs)), P70671", "T3 chain": "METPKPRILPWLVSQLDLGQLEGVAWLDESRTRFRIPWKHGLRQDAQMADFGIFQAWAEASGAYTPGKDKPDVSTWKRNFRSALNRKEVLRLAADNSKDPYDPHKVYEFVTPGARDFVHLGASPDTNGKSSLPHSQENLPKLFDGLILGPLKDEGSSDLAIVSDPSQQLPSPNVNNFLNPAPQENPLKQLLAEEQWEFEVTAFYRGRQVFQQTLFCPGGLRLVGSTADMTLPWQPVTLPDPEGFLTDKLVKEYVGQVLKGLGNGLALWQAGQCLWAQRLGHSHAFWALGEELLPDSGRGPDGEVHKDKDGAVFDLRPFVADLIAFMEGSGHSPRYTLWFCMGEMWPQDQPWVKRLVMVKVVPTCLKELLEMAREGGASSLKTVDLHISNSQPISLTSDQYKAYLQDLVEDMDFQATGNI", "assay": "native gel or EMSA", "details": "remark: other sources report otherwise"}, "[4]": {"molecular_target": "endogenous MAVS (mitochondrial antiviral-signaling protein) (human (endogenous in HEK293T)) (UniProt Q7Z434)", "assay": "co-IP; endogenous proteins of HEK293T cells, with or without SeV stimulation (16 h); NP40 lysis buffer; immunoblot"}, "[5]": {"molecular_target": "MAVS (mitochondrial antiviral-signaling protein), transfected, tag not stated (UniProt Q7Z434)", "assay": "co-IP"}}, "note": "Results are given in words; binding and its absence hold for the method and conditions named. For part of these data: Binding seen in cells or lysates may run through a third protein. Some binding calls cover weakened binding; strength is not graded here. For part of these data: Sequences can lack the tags named with a protein.", "data": [{"molecule": "NLK-associated and MAVS-derived antiviral peptide (NAMDAP) (from UniProt Q7Z434 471-480)", "values": [{"measurement": "binding", "setting": "[1]", "result": "binds"}]}, {"molecule": "Flag-NLK (Nemo-like kinase) (enzyme, UniProt Q9UBE8 1-527) MSLCGARANAKMMAAYNGGTSAAAAGHHHHHHHHLPHLPPPHLHHHHHPQHHLHPGSAAAVHPVQQHTSSAAAAAAAAAAAAAMLNPGQQQPYFPSPAPGQAPGPAAAAPAQVQAAAAATVKAHHHQHSHHPQQQLDIEPDRPIGYGAFGVVWSVTDPRDGKRVALKKMPNVFQNLVSCKRVFRELKMLCFFKHDNVLSALDILQPPHIDYFEEIYVVTELMQSDLHKIIVSPQPLSSDHVKVFLYQILRGLKYLHSAGILHRDIKPGNLLVNSNCVLKICDFGLARVEELDESRHMTQEVVTQYYRAPEILMGSRHYSNAIDIWSVGCIFAELLGRRILFQAQSPIQQLDLITDLLGTPSLEAMRTACEGAKAHILRGPHKQPSLPVLYTLSSQATHEAVHLLCRMLVFDPSKRISAKDALAHPYLDEGRLRYHTCMCKCCFSTSTGRVYTSDFEPVTNPKFDDTFEKNLSSVRQVKEIIHQFILEQQKGNRVPLCINPQSAAFKSFISSTVAQPSEMPPSPLVWE", "values": [{"measurement": "binding", "setting": "[2]", "result": "binds"}, {"measurement": "binding", "setting": "TBK1", "result": "no binding"}]}, {"molecule": "endogenous IRF3 of mouse BMDMs, P70671 1-419 (protein) METPKPRILPWLVSQLDLGQLEGVAWLDESRTRFRIPWKHGLRQDAQMADFGIFQAWAEASGAYTPGKDKPDVSTWKRNFRSALNRKEVLRLAADNSKDPYDPHKVYEFVTPGARDFVHLGASPDTNGKSSLPHSQENLPKLFDGLILGPLKDEGSSDLAIVSDPSQQLPSPNVNNFLNPAPQENPLKQLLAEEQWEFEVTAFYRGRQVFQQTLFCPGGLRLVGSTADMTLPWQPVTLPDPEGFLTDKLVKEYVGQVLKGLGNGLALWQAGQCLWAQRLGHSHAFWALGEELLPDSGRGPDGEVHKDKDGAVFDLRPFVADLIAFMEGSGHSPRYTLWFCMGEMWPQDQPWVKRLVMVKVVPTCLKELLEMAREGGASSLKTVDLHISNSQPISLTSDQYKAYLQDLVEDMDFQATGNI", "values": [{"measurement": "binding", "setting": "[3]", "result": "binds"}]}, {"molecule": "endogenous NLK (Nemo-like kinase) (enzyme, UniProt Q9UBE8 1-527) MSLCGARANAKMMAAYNGGTSAAAAGHHHHHHHHLPHLPPPHLHHHHHPQHHLHPGSAAAVHPVQQHTSSAAAAAAAAAAAAAMLNPGQQQPYFPSPAPGQAPGPAAAAPAQVQAAAAATVKAHHHQHSHHPQQQLDIEPDRPIGYGAFGVVWSVTDPRDGKRVALKKMPNVFQNLVSCKRVFRELKMLCFFKHDNVLSALDILQPPHIDYFEEIYVVTELMQSDLHKIIVSPQPLSSDHVKVFLYQILRGLKYLHSAGILHRDIKPGNLLVNSNCVLKICDFGLARVEELDESRHMTQEVVTQYYRAPEILMGSRHYSNAIDIWSVGCIFAELLGRRILFQAQSPIQQLDLITDLLGTPSLEAMRTACEGAKAHILRGPHKQPSLPVLYTLSSQATHEAVHLLCRMLVFDPSKRISAKDALAHPYLDEGRLRYHTCMCKCCFSTSTGRVYTSDFEPVTNPKFDDTFEKNLSSVRQVKEIIHQFILEQQKGNRVPLCINPQSAAFKSFISSTVAQPSEMPPSPLVWE", "values": [{"measurement": "binding", "setting": "[4]", "result": "binds"}]}, {"molecule": "NLK (Nemo-like kinase), transfected, tag not stated (enzyme, UniProt Q9UBE8 1-527) MSLCGARANAKMMAAYNGGTSAAAAGHHHHHHHHLPHLPPPHLHHHHHPQHHLHPGSAAAVHPVQQHTSSAAAAAAAAAAAAAMLNPGQQQPYFPSPAPGQAPGPAAAAPAQVQAAAAATVKAHHHQHSHHPQQQLDIEPDRPIGYGAFGVVWSVTDPRDGKRVALKKMPNVFQNLVSCKRVFRELKMLCFFKHDNVLSALDILQPPHIDYFEEIYVVTELMQSDLHKIIVSPQPLSSDHVKVFLYQILRGLKYLHSAGILHRDIKPGNLLVNSNCVLKICDFGLARVEELDESRHMTQEVVTQYYRAPEILMGSRHYSNAIDIWSVGCIFAELLGRRILFQAQSPIQQLDLITDLLGTPSLEAMRTACEGAKAHILRGPHKQPSLPVLYTLSSQATHEAVHLLCRMLVFDPSKRISAKDALAHPYLDEGRLRYHTCMCKCCFSTSTGRVYTSDFEPVTNPKFDDTFEKNLSSVRQVKEIIHQFILEQQKGNRVPLCINPQSAAFKSFISSTVAQPSEMPPSPLVWE", "values": [{"measurement": "binding", "setting": "[5]", "result": "binds"}]}]}
